Experimental data published in PubChem BioAssay AID485344 (National Center for Advancing Translational Sciences (NCATS), 2010).
In all, about 340,000 compounds went through this assay and about 6,900 (2%) were called active. Rule as the data show it: active = inhibition above about 30%; inactive = below that, where a call was filed. Only a part is listed here, and it is no random draw. The source gives no active or inactive call for entries shown without one.

These compounds were tested against D(2) dopamine receptor (Homo sapiens) (UniProt P14416) (assay: HTS Assay for Allosteric Antagonists of the Human D2 Dopamine Receptor: Primary Screen for Antagonists). Conditions: HEK293 TREx D2 cells, calcium flux, dopamine EC80; at 10 µM; stronger effect = higher value.
Sequence of UniProt P14416 (P14416 whole entry, looked up): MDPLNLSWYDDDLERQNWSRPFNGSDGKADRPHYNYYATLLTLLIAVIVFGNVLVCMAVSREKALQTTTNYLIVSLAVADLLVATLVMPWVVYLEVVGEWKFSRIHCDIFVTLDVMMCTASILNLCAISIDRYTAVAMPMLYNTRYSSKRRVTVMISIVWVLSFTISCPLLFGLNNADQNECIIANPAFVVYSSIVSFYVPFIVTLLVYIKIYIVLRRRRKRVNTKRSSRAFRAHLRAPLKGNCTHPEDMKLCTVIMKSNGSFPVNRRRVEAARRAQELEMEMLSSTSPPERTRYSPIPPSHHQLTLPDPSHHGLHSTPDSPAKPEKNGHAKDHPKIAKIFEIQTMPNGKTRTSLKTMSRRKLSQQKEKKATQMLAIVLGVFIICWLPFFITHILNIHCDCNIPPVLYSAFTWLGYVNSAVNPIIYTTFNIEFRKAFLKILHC
In short: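 Overnight-induced (tetracycline, 30 C) HEK293 T-REx cells carrying force-coupled D2 receive a no-wash calcium dye, then compound, then EC80 dopamine at 180 s; signals are read kinetically throughout.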
Also: 0% is about no effect.

Row | SMILES | inhibition
1 | CCc1ccc(NC(=O)Cn2nnc(C(=O)NCc3ccc(C)cc3)c2N)cc1 | 3.5%
2 | CCOc1ccccc1C(=O)NC1CCN(Cc2ccccc2)CC1 | active: 89.2%
3 | CCc1ccc2c(c1)NC(c1ccc(C)cc1)=NC(c1cccs1)=N2 | 8.88%
4 | CC(=O)Nc1ccc(NC(=O)c2ccc3c(c2)NC(=O)c2ccccc2S3)cc1 | 5.95%
5 | CCn1c(=O)sc2cc(NS(=O)(=O)c3ccc(C)cc3)ccc21 | -9.46%
6 | CCOC(=O)N1CCc2c(sc3c2c(=O)n(Cc2ccccc2)c(=O)n3CC(=O)Nc2ccc(C)cc2C)C1 | -10.6%
7 | O=C(Nc1nnc(S(=O)(=O)N2CCOCC2)s1)c1ccccc1F | 7.81%
8 | Cc1ccc(NC(=O)C(C)Sc2nc(-c3ccccc3)c(C#N)c(=O)[nH]2)c(C)c1 (stereo not drawn) | 5.22%
9 | O=c1c(N2CCc3ccccc3C2)csc2ccc(Cl)cc12 | -23.7%
10 | COc1ccc(Nc2c(-c3ccc(N4CCOCC4)cc3)nc3ncccn23)cc1OC | -6.54%
11 | CC(C)c1cnc2c(c1SCC(=O)N1CCCCC1)c(=O)n(C)c(=O)n2C | -16.9%
12 | CCOc1cc(CN2CCN(S(=O)(=O)c3ccc(C)cc3)CC2)ccc1OC | 0.306%
13 | COc1ccc(/C=C/C(=O)Nc2sc(C)c(C)c2C(=O)O)cc1 | 6.51%
14 | CCc1ccc(NC(=O)CN2C(=O)CCSc3ccccc32)cc1 | -8.56%
15 | O=C(NCCc1ccccc1)c1ccc(CS(=O)(=O)Cc2ccccc2Cl)o1 | 3.32%
16 | Cc1ccc(CNC(=O)C2CCCN(S(=O)(=O)c3cn(C)cn3)C2)cc1 (stereo not drawn) | -25.6%
17 | Cc1cc(=O)n(CC(=O)NCc2ccc(OC(C)C)cc2)c2c1c(C)nn2-c1cccc(F)c1 | 6.41%
18 | Cc1cc(C)cc(NS(=O)(=O)c2ccc(N3CCCCS3(=O)=O)cc2)c1 | 7.05%
19 | Cc1ccc(S(=O)(=O)NCC(c2ccc3c(c2)OCO3)N2CCN(c3ccccc3)CC2)cc1 (stereo not drawn) | active: 67.4%
20 | COc1ccc(CCNC(=O)c2c(C)oc3ncnc(N4CCOCC4)c23)c(OC)c1 | -17.6%
21 | Cc1ccc(S(=O)(=O)Nc2cc3c(cc2C)n(C)c(=O)c(=O)n3C)c(C)c1 | 5.59%
22 | Cc1cc(C)cc(Nc2cc(C(=O)NC3CCC(C)CC3)c3ccccc3n2)c1 (stereo not drawn) | 0.334%
23 | CCCN1C(C(=O)c2ccccc2)=C(OC(=O)c2ccc(OC)cc2)c2ccccc2S1(=O)=O | 0.616%
24 | CN(Cc1ccc(F)cc1)S(=O)(=O)c1nnc(NC(=O)c2ccccc2Cl)s1 | -1.48%

Row | SMILES | inhibition
25 | CCc1nc(-c2cc(S(=O)(=O)N3CCN(c4ccccc4F)CC3)ccc2OC)no1 | 18.9%
26 | O=C(Cn1c(=O)c(C(F)(F)F)nc2ccccc21)Nc1cccc(Br)c1 | -5.36%
27 | CNc1ccc(-c2nc(-c3ccco3)no2)cc1[N+](=O)[O-] | -23.1%
28 | CCOC(=O)N1CCC(NC(=O)c2cnn(-c3ccc(F)cc3F)c2C2CCN(C(=O)OC(C)(C)C)CC2)CC1 | -0.978%
29 | Cc1ccccc1NC(=O)c1ccc2c(O)c(S(=O)(=O)c3ccccc3)c(=O)[nH]c2c1 | -11.7%
30 | COc1ccc(-c2nnc(NC(=O)c3ccc(F)cc3)o2)cc1 | active: 33.9%
31 | NS(=O)(=O)c1ccc(CCNC(=O)Cn2c(-c3cccs3)cc3ccccc32)cc1 | -18.6%
32 | Cc1cc2c(cc1C)NC(CC(=O)Nc1cccc(Cl)c1)C(=O)N2 (stereo not drawn) | -1.93%
33 | C=CCc1cccc2cc(C(=O)NCCc3c(C)[nH]c4c(C)cccc34)c(=O)oc12 | -8.3%
34 | CCN(CC)c1ccc(NC(=O)CCc2nc3cccnc3n2Cc2cccs2)c(C)c1 | -11.5%
35 | CC1CCCN(CCOCCOc2ccccc2-c2ccccc2)C1 (stereo not drawn) | active: 80.4%
36 | COc1cccc(C2C(C(=O)Nc3ccc(Cl)cc3)=C(C)Nc3nc4ccccc4n32)c1 (stereo not drawn) | 11.2%
37 | CCC(C)Sc1oc(-c2ccco2)nc1S(=O)(=O)c1ccc(C)cc1 (stereo not drawn) | -16.9%
38 | Cc1ccc(CNc2ncnc3c2cnn3-c2ccc(Cl)cc2)cc1 | -28%
39 | COc1cccc(CC(=O)Nc2ccc(-c3nc4ccccc4s3)cc2)c1 | -10.9%
40 | COc1ccccc1C1Nc2c(sc3nc(C)cc(C)c23)C(=O)N1c1ccccc1 (stereo not drawn) | -4.87%
41 | COc1ccc2c(c1)c1c(c(=O)n(-c3ccc(C)cc3)c(=O)n1CC(=O)NCc1ccc(C)cc1)n2C | 1.34%
42 | COc1ccc(Cl)cc1NC(=O)c1nnn(Cc2cccc(C(F)(F)F)c2)c1N | 5.56%
43 | CCN1CCN(c2nc(Nc3ccc(C)c(C)c3)nc(N)c2[N+](=O)[O-])CC1 | active: 51.5%
44 | COc1ccc(OCC(=O)Nc2cc(-c3nc4ccccc4s3)ccc2C)cc1 | 7.05%
45 | Cc1cccc(N2CCN(S(=O)(=O)c3ccc(-c4cc(C(F)(F)F)on4)s3)CC2)c1C | 3.83%
46 | Cc1ccccc1OCC(=O)Nc1ccc2nc(SCC(=O)N3CCc4ccccc43)sc2c1 | -6.45%
47 | O=C(C1CCCN(S(=O)(=O)c2ccc(Br)s2)C1)N1CCN(c2cccc(Cl)c2)CC1 (stereo not drawn) | 2.96%
48 | CCOc1cc2[nH]c(=O)n(CCCCC(=O)N3CCN(c4cccc(Cl)c4)CC3)c(=O)c2cc1OCC | -18.7%
